# The RNAGym collection of RNA variant scans (doi:10.7554/elife.90254)
# Read counts are not given, so values of variants with three or more changes are uncertain.
# B1: LINE1-mini (parent)
# chain: GGCAGAGCUCAACACAGCGUGGCAAAGUGGCUGUGGCUAGACUGCC
# Variants of: B1
# Assay: self-cleavage, relative activity (ratio to wild type); higher = more cleavage; in vitro, sequencing; the parent is a self-cleaving ribozyme
row,Variant,self-cleavage
1,C3A C23A G33A,0.06
2,G2A C10A G40U,0.02
3,A6C A12G A16C G22C A24G G29A C31G,0.02
4,G1U G21C C23A U28A,0.19
5,C23A G27U C45G,0.32
6,A12C G27A A41C C42A,0
7,C10A A11U A14U C37A U38G C45U,0.02
8,A16G A26G C31G C42U,0
9,C10A A24G A25G U38G,0.04
10,A12C G17U G40A,0.02
11,U9C C18G G21U U38C,0.03
12,G1U G5U A11C G22U,0.05
13,G1U G29U G33A C46A,0.04
14,A12U C18U U28C,0.03
15,C13G A14C U38G,0.03
16,G17C G19U G21A C45U,0.48
17,A14C A39G C45A,0.03
18,U9C G22C C37A,0.05
19,G7C C8U U38G,0.04
20,G5A A6U G21U C42A,0.06
21,A4U A6U A12G C18A G33C,0.01

row,Variant,self-cleavage
1,C3G A4C G5U C10A C13G G22C,0.03
2,A12U G17C U34G,0.02
3,G22C C31U G33C A41C,0.05
4,U9C G17A G44U,0.01
5,C10A G30C U38A,0.11
6,C10A G35U U43G,0.02
7,C13A A25U U28C,0.14
8,A26G G27C G29U,0.6
9,G1U G22A A24C,0.25
10,C15A G17U G27U,0.22
11,C3A G5A C8U A12G G36U U38C A39C,0.95
12,C13A A26U C46G,0.14
13,C8A U28C G40C U43G,0.06
14,G5C A25G A26U G35U,0.03
15,U9C A26U U38C C42G,0.01
16,C13U C31A U32C,0.03
17,G17C G35U G40C,0.07
18,G5A C10G A11G G21A A26U G29U C42U,0.01
19,C8A U28C G29A G35U,0.14
20,A16U U28A G33C C45U,0.02
21,G5C G7A G40C C46U,0.16

row,Variant,self-cleavage
1,G7A G22C C23A G29U,0.01
2,G7U G22C U43G,0.08
3,A6C G17C G30A U32C,0.31
4,A16U G29A G36U A41G,0.1
5,C8G G17A U20A A24C U28A,0.05
6,G1C G2A C3G G21U,0.04
7,A6U C31G C46A,0.32
8,U9A G22A G27A,0.02
9,C15U U28C G29A,2.75
10,A11U G33U G36A A39G U43A,0.01
11,G35A A39U A41C,0.01
12,G1C A14G A24G,0.17
13,G1C C15U U28G,0.07
14,A6G C10U A11G,0.01
15,G17A G30A C31A,0.14
16,C23U A26U A41G,0.28
17,C10G C13A A14C G40C G44U,0.01
18,G22C G27A G29A,0.72
19,A4C G30U C31A,0.04
20,U9C G19U C23A A39U,0.01
21,C13U G19U A25C G40A,0.04

row,Variant,self-cleavage
1,A6C A12U G36A,0.03
2,C3U U9A G21C C37A,0.1
3,G2U G5U A11U G33C C37U,0.01
4,A4G A26U G44U,0.12
5,A4C C10A C15G U20A A26G,0.01
6,G1U A12C U20A G33U G35U U38A,0
7,G1U G7A G21A U28C,0.03
8,G2A A4U C8A C23G A24C C37U,0.28
9,G2A C37G A41C G44U C45G,0.06
10,C8U A11U G36C C42U,0.02
11,G2U A12G C15U G19U G44U C45U,0
12,G1U C15U G36C,0.02
13,G27U G30C U34G,0.03
14,U9G C13A C18U,0.06
15,U32C U43A C46U,0.06
16,C3A G27U C31U,0.15
17,G19U U28G G40A C42U,0.03
18,G1A C13U C18G A25C,0
19,C13A C18G G36C,0.13
20,C13G G29A U32A,0.05
21,A11U G29U G40C,0.02
